Assay results reported in article PMC4336329 (PLoS ONE, 2015).
In all, about 310,000 compounds went through this assay and about 14,000 (4.5%) showed an effect of 50% or more. Effects have a minus sign here. The list shows a part of the results.

Target: human ether-à-go-go-related gene (hERG) potassium channel (human, UniProt Q12809)
Test: primary screen, population patch clamp on CHO cells stably expressing hERG
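Further: peak tail current of the secondary pulse compared with the same well before compound.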

Sequence of human ether-à-go-go-related gene (hERG) potassium channel (Q12809 whole entry, looked up): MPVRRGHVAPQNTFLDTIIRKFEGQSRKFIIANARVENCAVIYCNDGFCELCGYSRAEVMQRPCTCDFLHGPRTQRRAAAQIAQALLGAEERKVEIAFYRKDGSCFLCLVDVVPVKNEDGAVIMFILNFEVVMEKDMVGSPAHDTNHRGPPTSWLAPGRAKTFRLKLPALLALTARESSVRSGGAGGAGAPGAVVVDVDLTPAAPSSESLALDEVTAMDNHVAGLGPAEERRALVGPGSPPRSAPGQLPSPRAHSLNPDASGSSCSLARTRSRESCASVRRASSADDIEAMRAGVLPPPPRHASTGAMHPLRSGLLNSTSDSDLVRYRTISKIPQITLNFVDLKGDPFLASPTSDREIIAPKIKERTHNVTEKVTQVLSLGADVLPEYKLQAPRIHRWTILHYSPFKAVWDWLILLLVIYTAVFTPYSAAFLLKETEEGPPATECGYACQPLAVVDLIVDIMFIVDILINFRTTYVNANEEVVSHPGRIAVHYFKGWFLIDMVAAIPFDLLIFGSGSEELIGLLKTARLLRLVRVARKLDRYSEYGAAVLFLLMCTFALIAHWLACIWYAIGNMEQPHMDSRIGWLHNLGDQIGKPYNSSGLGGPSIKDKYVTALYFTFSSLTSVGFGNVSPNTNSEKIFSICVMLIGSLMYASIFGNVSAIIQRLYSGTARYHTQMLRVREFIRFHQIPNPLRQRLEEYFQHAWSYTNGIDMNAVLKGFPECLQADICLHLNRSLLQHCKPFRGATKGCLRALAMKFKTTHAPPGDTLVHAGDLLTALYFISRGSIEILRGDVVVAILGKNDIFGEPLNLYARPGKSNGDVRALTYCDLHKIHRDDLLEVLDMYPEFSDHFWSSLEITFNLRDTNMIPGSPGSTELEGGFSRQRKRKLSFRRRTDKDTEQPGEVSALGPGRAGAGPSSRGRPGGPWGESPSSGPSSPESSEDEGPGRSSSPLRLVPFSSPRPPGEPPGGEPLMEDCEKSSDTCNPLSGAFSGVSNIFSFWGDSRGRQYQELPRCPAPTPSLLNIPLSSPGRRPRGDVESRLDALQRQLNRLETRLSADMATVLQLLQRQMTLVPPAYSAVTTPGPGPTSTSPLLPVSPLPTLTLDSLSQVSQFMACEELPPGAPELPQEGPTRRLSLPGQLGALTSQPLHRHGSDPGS

| SMILES | hERG current change (%, negative = inhibition) at 10uM [%] |
| --- | --- |
| COCCn1c(=NC(=O)CSC(C)=O)sc2cc(F)ccc21 | -23 |
| O=C(CSc1nnc(CNC(=O)c2cccs2)o1)Nc1cccc(C(F)(F)F)c1 | -35.1 |
| CCC(=O)Nc1ccc(NC(=O)c2cc3ccccc3o2)c(OC)c1 | -5.36 |
| COc1ccc(/C=C/C(=O)C2CC2)cc1Cn1nc(C)c([N+](=O)[O-])c1C | -14.6 |
| CCOC(=O)c1ccc2nc(NC(NC(C)=O)(C(=O)OC)C(F)(F)F)sc2c1 (stereo not shown) | 13.6 |
| CC(C)c1ccc(N(C(=O)c2csnn2)C(C(=O)NC2CCCC2)c2ccncc2)cc1 (stereo not shown) | -57.8 |
| CCS(=O)(=O)c1nc(S(=O)(=O)c2ccc(C)cc2)c(N2CCN(CCO)CC2)s1 | -5.69 |
| Cc1ccc(O)c(NC(=O)Cc2ccc3ccccc3c2)c1 | 2.33 |
| CC(=O)N1C(=O)NC(c2ccccc2)=C([N+](=O)[O-])C1c1ccccc1 (stereo not shown) | -5.17 |
| O=C(Nc1ccc2c(c1)OCO2)C1COc2ccccc2O1 (stereo not shown) | 13.5 |
| CCOc1cc(C2/C(=C(/O)c3ccc(OC(C)C)cc3)C(=O)C(=O)N2CCCOC)ccc1O (stereo not shown) | 25 |
| CS(=O)(=O)c1ccc(C(=O)Nc2ccccc2Cl)cc1 | -25.1 |
| CCc1ccc(CN(C)C(=O)c2ccc3c(=O)n4c(nc3c2)CCC4)cc1 | -24.8 |
| CCOC(=O)Cc1csc(NC(=O)CSc2nccn2C)n1 | 17.3 |
| COc1ccc(C(=O)N2c3ccccc3CC2C)cc1OC (stereo not shown) | 0.669 |
| COc1ccccc1CC(=O)NNS(=O)(=O)c1cccc([N+](=O)[O-])c1 | 8.88 |
| CCn1c(C(C)NS(=O)(=O)c2ccc(Cl)cc2)n[nH]c1=S (stereo not shown) | 20.1 |
| Cc1ccccc1-n1nc2c(c1NC(=O)c1cccc(F)c1)CS(=O)C2 (stereo not shown) | 9.26 |
| C=CCn1c(C)nnc1SCC(=O)Nc1oc(C)c2c(C)n[nH]c(=O)c12 | -1.95 |
| Cc1ccc(C)c(NC(=S)N/N=C/C(C)c2ccccc2)c1 (stereo not shown) | -10.8 |
| Cc1nnc(-c2ccc(N3CCOCC3)c([N+](=O)[O-])c2)o1 | 11.6 |
| CCc1ccccc1NC(=S)N(Cc1ccc(C(=O)O)cc1)Cc1ccc(OC)c(OC)c1 | 22 |

| SMILES | hERG current change (%, negative = inhibition) at 10uM [%] |
| --- | --- |
| COc1ccc(CCNC(=O)Cn2c(=O)n(-c3cc(F)ccc3F)c(=O)c3sccc32)cc1OC | -6.4 |
| O=C(NCCc1ccc(Cl)cc1)C1CC(=O)N(C2CCCC2)C1 (stereo not shown) | 4.17 |
| Cc1ccc(/C=C2\SC(=S)N(CCC(=O)NNS(=O)(=O)c3ccccc3)C2=O)cc1 | 16.5 |
| CS(=O)(=O)Nc1ccc(C(=O)N2CCCCC2)cc1 | -3.35 |
| COc1ccc(OC)c(S(=O)(=O)NCc2cc(-c3ccccc3)no2)c1 | 17.6 |
| Cc1onc(-c2ccccc2)c1C(=O)N/N=C/c1c(F)cccc1Cl | 4.94 |
| COc1ccccc1N1CCN(c2ccc(Cl)nn2)CC1 | 11.6 |
| O=C(COCc1cc(-c2ccco2)on1)NC1CCCCC1 | 3.18 |
| Cc1ccccc1C(=O)N1CCc2ccccc2C1 | -0.92 |
| O=C(c1sc2cccc(F)c2c1Cl)N1CCN(c2ncccn2)CC1 | -41.5 |
| COC(=O)c1ccccc1NC(=O)CSc1n[nH]c(CC(C)C)n1 | 6.11 |
| Cc1cccc(-n2c(SCC(=O)N3CCCC3)nnc2-c2ccccn2)c1C | 6.05 |
| C#CCOCCOCCOCCNc1nc(N2CCN(C(=O)CCCCCCCCCCNC(=O)[C@H](CCC(=O)O)n3cc(CCCCCN)nn3)CC2)nc(N2CCN(C(=O)CCCCCCCCCCNC(=O)[C@@H]([C@H](C)O)n3cc(C)nn3)CC2)n1 | 20.1 |
| CN(CCC#N)S(=O)(=O)c1ccc2[nH]cc(C(=O)NCCc3ccccc3)c(=O)c2c1 | -0.382 |
| O=P(Cc1cccc[n+]1[O-])(c1ccccc1)c1ccccc1 | 15.5 |
| O=C(Cn1ncc(Cl)c(Cl)c1=O)N1CCN(S(=O)(=O)c2ccc3ccccc3c2)CC1 | -49.2 |
| COc1ccc(C(=O)COC(=O)CCCC(=O)NC2CCCCC2)cc1 | 2.77 |
| NS(=O)(=O)c1cccc(NC(=O)COC(=O)CCc2ccccc2)c1 | 17 |
| COC(=O)c1ccc(NC(=O)c2snnc2-c2ccccc2)cc1 | 2.66 |
| COc1ccc(COC(=O)c2n[nH]c3ccccc23)cc1F | -3.24 |
| Cc1ccc(N2C(=O)NC(NS(=O)(=O)c3ccccc3)(C(F)(F)F)C2=O)cc1C (stereo not shown) | 44.4 |
| Cc1ccccc1NC(=O)N1CCCC1C(=O)NCc1ccccc1 (stereo not shown) | 11.1 |

| SMILES | hERG current change (%, negative = inhibition) at 10uM [%] |
| --- | --- |
| CCOC(=O)N/N=C1\CCc2ccccc21 | 4.57 |
| O=C(NCCc1ccc(F)cc1)c1ccc(NS(=O)(=O)c2ccc3[nH]c(=O)[nH]c3c2)cc1 | 19.9 |
| Cc1cccc(S(=O)(=O)NNC(=O)c2cc(-c3ccc(F)cc3)nc3ccccc23)c1 | 28.5 |
| Cc1ccc(C(=O)NC(C)c2ccccc2)cc1Br (stereo not shown) | -11.8 |
| O=C(Cn1cnc2c(oc3ccccc32)c1=O)NCc1ccccc1 | -19 |
| NS(=O)(=O)c1ccc(CNC(=O)c2cc(-c3cccnc3)nc3ccccc23)cc1 | -12.5 |
| CC(=O)NNc1cc(C)nc(NS(=O)(=O)c2ccc(C)cc2)n1 | 15.8 |
| COc1ccc(CN2CCOC2=O)cc1OC | 11.2 |
| COc1ccc(C(=O)Nc2cc(C)nn2-c2cccc(F)c2)cc1 | 0.834 |
| CCOC(=O)c1cn(CC)c2cc(Cl)c([N+](=O)[O-])cc2c1=O | -20.4 |
| O=S(=O)(O)c1cccnc1SCc1ccccc1 | 21.1 |
| O=C(NC(CO)Cc1ccc([N+](=O)[O-])cc1)C(Cl)Cl (stereo not shown) | 6.97 |
| O=C(Nc1cccc([N+](=O)[O-])c1)c1ccc(N2CCCC2=O)cc1 | 12 |
| CCCSc1nc(N2CCOCC2)c2c(c1C#N)CCCC2 | 0.781 |
| CCC1C=C(c2ccccc2)C=CN=C1N(CC)CC (stereo not shown) | -61.6 |
| COc1ccc2c(c1)CCc1c(C(=O)NCCCn3ccnc3)noc1-2 | -50.2 |
| Cc1c(/C=N/NC(=O)c2sc3ccccc3c2Cl)cnn1C | -3.8 |
| COc1ccc(N2CCN(C(=S)Nc3ccccc3)CC2)cc1 | 16.9 |
| CCN(CC)C(=O)CSc1nnc(NC(=O)CCc2ccccc2)s1 | 6.35 |
| O=C(NCc1ccccc1)c1ccc(CN(c2ccccn2)S(=O)(=O)c2ccccc2)cc1 | -9.49 |
| COc1cc(/C=N/NC(=O)CCc2n[nH]c(=O)[nH]c2=O)cc(OC)c1OC | -17.1 |
| CC(/C=C1\N=C(SCc2ccccc2Cl)SC1=O)=C\c1ccccc1 | 9.89 |

| SMILES | hERG current change (%, negative = inhibition) at 10uM [%] |
| --- | --- |
| Cc1ccc(C)c(Cn2nc(-c3ccccc3)ccc2=O)c1 | 3.4 |
| O=C(CCS(=O)(=O)c1ccc2c(c1)NC(=O)CO2)NCc1ccccc1 | -2.28 |
| COc1ccc(C2CC2/C(C)=N/OC(=O)c2cccs2)cc1 (stereo not shown) | -17.7 |
| Cc1nnsc1C(=O)NNc1ccc(C(C)C)cc1 | 10.9 |
| COC(OC)c1ccnc(-c2ccc(OC(=O)c3ccc(F)cc3)cc2)n1 | 9.87 |
| Cc1ccc(C(=O)CCNc2ccc(Br)cc2)o1 | -0.536 |
| N#Cc1nc(Cc2cccc3ccccc23)oc1N1CCOCC1 | -21.3 |
| CC(=O)Oc1ccc(-c2cccc(C(=O)NCCO)c2)cc1 | 16.7 |
| CCOc1ccc(N2CC(C(=O)NCc3ccccn3)CC2=O)cc1 (stereo not shown) | 5.2 |
| O=C(Nc1ccc(Cl)cc1)N1CCCN(Cc2ccc(F)cc2)C1 | -75.4 |
| CCC(C)c1ccccc1OCCOCCN1CCCC1 (stereo not shown) | -11.6 |
| O=C(CN1C(=O)/C(=C/c2ccccc2)SC1=S)NNC(=O)c1ccccc1O | 3.37 |
| CC1OC23CCCCC2C(C#N)(C(=N)O3)C1(C#N)C#N (stereo not shown) | 14.3 |
| Cc1ccc(S(=O)(=O)N2CCN(C(=O)C3CC3C)CC2)c(C)c1 (stereo not shown) | -22.8 |
| NNC(=O)C1CCCn2c1nc1sc3c(c1c2=O)CCCC3 (stereo not shown) | -5.66 |
| Cc1nc(-c2ccccc2)cc(-c2ccccc2)n1 | 6.79 |
| c1ccc(SCc2nc3ccccc3s2)nc1 | 7.01 |
| Cc1cccc(NC(=O)Nc2cccc3ccccc23)c1 | 3.91 |
| Cc1sc2ncnc(SCC(=O)N3CCCC3)c2c1C | 2.1 |
| CC(=O)c1cccc(S(=O)(=O)N2CCN(c3nc4cc(C)cc(C)c4cc3C#N)CC2)c1 | 4.7 |
| Cn1c(=O)c2[nH]c(N3CCN(c4ccccc4)CC3)nc2n(C)c1=O | 8.36 |
| CCNC(=O)C1CC(=O)N(c2ccc(OCC)cc2)C1 (stereo not shown) | 0.654 |
